Experimental data: paper PMC6919601, “Identification of Plasmodium dipeptidyl aminopeptidase allosteric inhibitors by high throughput screening” (PLoS ONE, 2019)
In all, about 110,000 compounds went through this assay and about 230 (0.21%) showed an effect of 50% or more. Some of the results follow.

Target: DPAP1 (Plasmodium falciparum, UniProt Q8IIJ9)
Assay: primary screen, percent inhibition; read by cleavage of a fluorogenic dipeptide substrate; higher = more effect of the substance
Design: species or system P. falciparum D10 trophozoite lysates; single well
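Also: 30 min substrate incubation versus DMSO and 10 µM JCP410 controls.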

Chain of DPAP1 (Q8IIJ9 whole entry, looked up): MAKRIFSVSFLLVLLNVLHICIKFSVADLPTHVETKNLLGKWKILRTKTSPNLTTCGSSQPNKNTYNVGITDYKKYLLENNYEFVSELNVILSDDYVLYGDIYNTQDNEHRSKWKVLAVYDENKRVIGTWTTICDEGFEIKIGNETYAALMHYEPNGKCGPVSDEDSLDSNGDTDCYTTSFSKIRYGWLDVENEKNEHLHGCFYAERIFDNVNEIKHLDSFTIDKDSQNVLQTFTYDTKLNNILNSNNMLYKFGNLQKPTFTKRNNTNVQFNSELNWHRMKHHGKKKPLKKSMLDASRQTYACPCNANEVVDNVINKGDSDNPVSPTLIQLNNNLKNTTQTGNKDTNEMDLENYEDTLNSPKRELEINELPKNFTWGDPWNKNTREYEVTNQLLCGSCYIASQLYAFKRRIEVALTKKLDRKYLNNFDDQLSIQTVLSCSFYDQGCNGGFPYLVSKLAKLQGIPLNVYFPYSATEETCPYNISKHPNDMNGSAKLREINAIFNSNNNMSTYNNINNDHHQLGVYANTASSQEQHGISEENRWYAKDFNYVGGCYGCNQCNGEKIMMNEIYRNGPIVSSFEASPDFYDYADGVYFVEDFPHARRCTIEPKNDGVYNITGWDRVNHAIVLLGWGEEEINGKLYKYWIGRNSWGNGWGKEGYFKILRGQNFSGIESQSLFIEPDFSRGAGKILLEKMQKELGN

Compound | % Inhibition @ 10 uM
CC(=O)NCCc1ccc(S(N)(=O)=O)cc1 | 3.58%
Cc1ccccc1OC(C)C(=O)Nc1ccccc1Cl (stereo not shown) | -2.19%
O=C(NCc1cccc(Cl)c1)c1nc(O)c2nnn(Cc3ccccc3)c2n1 | -1.82%
Cc1ccc(C)c(OCC(=O)Nc2ccc(F)cc2F)c1 | -5.62%
Cc1ccc(-c2ccccc2)n1-c1ccc(O)cc1 | -6.6%
Cc1ccccc1C(=O)N(Cc1cccc(F)c1)C1CCS(=O)(=O)C1 (stereo not shown) | 5.17%
CS(=O)(=O)N(CC(=O)N1CCN(Cc2ccccc2)CC1)c1ccccc1Cl | -2.74%
Cc1cc(O)n2nc(-c3ccccc3C)cc2n1 | -7.19%
Cc1ccc(CNC(=O)N2CCN3CCCCC3C2)cc1 (stereo not shown) | -4.96%
CC(C)(C)OC(=O)N1CCC(c2c(C(=O)O)cnn2-c2ccccc2)CC1 | -1.03%
OCCCNCC(O)Cn1c2ccccc2c2ccccc21 (stereo not shown) | -1.47%
c1csc(C2=Nn3c(nnc3-c3ccc4c(c3)OCO4)SC2)c1 | -0.628%
COc1ccccc1Nc1nc(OCC(F)(F)F)nc(OCC(F)(F)F)n1 | 0.67%
Cc1ccc(S(=O)(=O)NCC2CCC(C(=O)NCCCSC3CCCCC3)CC2)cc1 (stereo not shown) | -0.971%
CC12C=CC3(CN(Cc4ccccc4)C(=O)C3C1C(=O)NCCc1ccc(Cl)cc1)O2 (stereo not shown) | -2.14%
CC(CCc1ccccc1)NC(=O)CCCC(=O)c1ccccc1 (stereo not shown) | -8.86%
Cc1cccc(C)c1-n1ncc(C(=O)N2CCOCC2)c1C1CCN(C(=O)OC(C)(C)C)CC1 | 2.09%
COc1ccc(OC)c(S(=O)(=O)N2CCN(c3cc(Cl)ccc3Cl)CC2)c1 | -4.52%
Sc1nnc2[nH]c3ccccc3c2n1 | 56.9%
CC(C)CC(C(=O)NCC#N)n1cnc2c(NCCCN3CCOCC3)ncnc21 (stereo not shown) | -1.41%
O=C(O)c1ccc(CN2C(=O)c3ccccc3C2=O)cc1 | 3.25%
O=C(Cn1c2ccccc2c2cnnc(O)c21)NCCc1ccc(Cl)cc1 | 1.38%

Compound | % Inhibition @ 10 uM
CCOc1ccc(C(=O)N2CCc3ccccc3C2)cc1 | -11.7%
CCOc1ccc(C2C3=C(O)c4ccccc4C3=Nc3nc(N)nc(O)c32)cc1 (stereo not shown) | 6.47%
Cc1c(C(=O)/C=C/c2ccccc2)c2cc(O)ccc2n1C | 1.38%
COc1cccc(/C=N/CCNC(=O)c2nonc2N)c1O | 1.63%
O=C(Nc1ccc(F)cc1F)C1CC2CCC1C2 (stereo not shown) | 0.177%
CCCOc1ccc2oc(=O)c3c(c2c1)CCCN3C(=O)CN1CCN(C(=O)OCC)CC1 | 13.3%
CN(C)c1nc(SCC(=O)Nc2ccccc2)nc(N2CCOCC2)n1 | -4.39%
CCOC(=O)c1c(C)[nH]c(C)c1S(=O)(=O)NCc1ccccc1Cl | -0.884%
CC(C)C[C@H](NC(=O)OCc1ccccc1)C(=O)NC(C#N)c1csc2ccccc12 (stereo partly shown) | 1.71%
CC(=O)C1=C(C)NC(=O)NC1c1cccc2c1OCO2 (stereo not shown) | -0.216%
CC(C)(C)c1ccc(/C=C2\NC(=O)N(Cc3ccc(Cl)cc3)C2=O)cc1 | -3.06%
O=[N+]([O-])c1cccc(CNC23CC4CC(CC(C4)C2)C3)c1 | 1.43%
CN(C)CCCN(C(=O)c1ccc2c(c1)OCCO2)c1nc2ccc(Cl)cc2s1 | -1.6%
Cc1ccc(C(=O)NCCCCNC(=O)c2ccc(C)o2)o1 | 0.795%
CCOC(=O)c1cc(S(=O)(=O)NCCCN(C)Cc2ccccc2)cn1C | -2.84%
Oc1ccccc1OCc1nc2ccccc2s1 | -1.69%
COc1ccccc1OCC(=O)Nc1c(C(=O)c2ccccc2)oc2ccccc12 | 5.5%
CC(=O)N1[C@@H](c2ccc(Br)cc2)SC[C@H]1C(=O)O | -0.744%
CC(=O)C1=C(O)C(=O)N(CCN2C(=O)C(O)=C(C(C)=O)C2c2ccccc2)C1c1ccccc1 (stereo not shown) | -5.6%
CSc1nc2ccc(Nc3nc(N4CCOCC4)nc(N4CCOCC4)n3)cc2s1 | -0.725%
Oc1ccc(Oc2ccccc2)cc1C(O)(c1nc2ccccc2[nH]1)C(F)(F)F (stereo not shown) | -12.2%
CNC(=O)C1CCCN(c2nn3cc(-c4ccc(F)cc4)nc3s2)C1 (stereo not shown) | -1.68%

Compound | % Inhibition @ 10 uM
Cc1ccc(-n2nnc(-c3ccc(C(C)(C)C)cc3)n2)cc1 | -5.33%
COc1ccccc1CN1CCN(Cc2cc(OC)c(OC)c(OC)c2)CC1 | -17.9%
CCOc1ccc(NC(=O)CN2C(=O)S/C(=C/c3cccn3C)C2=O)cc1 | 2.36%
CC(C)CCN1CC(C(=O)NCc2ccccc2)CC1=O (stereo not shown) | 3.79%
CC(=O)Nc1ccc2oc(-c3ccccc3Br)nc2c1 | -1.99%
CCN1CCC(NCC(C)c2ccccc2)CC1 (stereo not shown) | 3.68%
CC1=C(C(=O)N2CCCCC2)C(c2cccs2)C2=C(O)CCCC2=N1 (stereo not shown) | -1.48%
CCc1[nH]nc2c1C1(C(=O)N(Cc3ccccc3)c3ccccc31)C(C#N)=C(N)O2 (stereo not shown) | -2.24%
CCCCS(=O)(=O)CC(O)COc1ccccc1 (stereo not shown) | 1.74%
CCc1ccc(C23OC(=O)C(C)(C)C2OC(=O)C3(C)C)cc1 (stereo not shown) | 0.408%
O=C(Nc1nccs1)C1CC1(c1ccccc1)c1ccccc1 (stereo not shown) | 4.67%
Cc1ccc(C)c(S(=O)(=O)NCC(=O)Nc2sc3c(c2C(N)=O)CCCCC3)c1 | 2.63%
C=CCSc1ncccc1C(=O)O | 10%
Cc1sc(NC(=O)c2ccc(F)cc2)c(CN2CCCC2)c1C | -2.63%
Cc1cccc(C(=O)Nc2ccc(NC(=O)c3ccc(Br)o3)cc2)c1 | 0.992%
Cc1ccc(Cn2c(CN3CCC(C)CC3)nc3c2c(=O)n(C)c(=O)n3C)cc1 | 2.9%
CCOc1ccc2nc(NC(=O)Cn3ncc4c5cc(C)ccc5nc-4c3O)sc2c1 | -3.64%
COc1ccc(C)cc1N(CC(=O)N1CCC(C)CC1)S(C)(=O)=O | -11%
COc1ccc(-n2nnc(-c3nc(-c4ccc(C)cc4)no3)c2N)cc1Cl | -5.65%
O=C(NCCCN1CCOCC1)c1ccc2nc(-c3ccc(F)cc3)c(-c3ccc(F)cc3)nc2c1 | 5.17%
